Source: the supplement of paper PMC11417369
This is one part of the list.

Each sequence was assayed on PfSIP2 AP2 domain 1 (GST-tagged) (assay: gcPBM binding intensity (ln(normalized median fluorescence intensity)); higher = stronger DNA binding).
In short: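 The binding buffer was 1× PBS containing 1% milk, 0.2 mg/ml BSA, 0.5% salmon testes DNA and 0.03% Triton X-100. In it, GST-tagged P. falciparum DNA-binding domains expressed in E. coli were applied for 1 h to an Agilent 4 × 180k array of primer-extended double-stranded 36-bp intergenic genomic probes plus negative controls. Binding intensity, read with Alexa488 anti-GST antibody and a 488 nm scan, is the highest Masliner-normalised natural-log median intensity across replicate spots of either probe orientation.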

Sequence	gcPBM binding intensity (ln)
AATAATCTATATTGTACACACAAAATGGGAAAAAAA [CACACA_site6969]	7.17
AGGTACTTTTTTAAAACACACATATAACATATACAC [CACACA_site6629]	7.3
ACCCCCAATACGGAAACACACAAGTTATTTTATCAT [CACACA_site8874]	7.42
TTAAATGAAAAATGGGGTACATATATACAAATATAT [XGTACX_site5931]	7.37
TGTTTATTTTTAAAAAGTACATATATAAAAAATATC [XGTACX_site4902]	7.22
ATAATTTGGAAACACACACACACACCCACATATATA [CACACA_site2286]	7.12
TGATTATACGCACGCGCACACACAACCAAAAAAAAA [CACACA_site3537]	7.65
AAAAAAAAATACTACTGTACTTTTTTTGGACATCTA [XGTACX_site1096]	6.75
AAAAAAGGAAAAGATACACACCGTAAATTAAAATTT [CACACA_site5908]	6.54
ATATATTTATATATTACACACAATATTGTACAGATA [CACACA_site8215]	7.18
GAAGGAATATACAATTGTACTTGGCAAAAAAAAAAA [XGTACX_site1884]	7.05
AAATACTTGTCATATTGTACATGTTTGTGATATATA [XGTACX_site3185]	6.93
GTTAAGAATATATAATGTACTTATTTTAATATAGTA [XGTACX_site6088]	7.07
CTCTGTTGTCTTAGTTGTACAATAGAAAAAAATAAT [XGTACX_site7043]	7.77
TCTTTTAAACAGTACACACACACATCTATATTTATA [CACACA_site6559]	7.34
ATATATATATATATATGTACATATTGTATTAATTAT [XGTACX_site1919]	9.29
TTTTTTACTTTTGAGACATTTCATATTTTTATTCAC [GTGCAC_negctrl_site730]	6.91
TACAGGAATATTTTTACACACTAAAAATTATAAAAT [CACACA_site1649]	6.88
TGATTGAGTAAAATGGGTACATATACACTATTACAT [XGTACX_site5232]	6.84

Sequence	gcPBM binding intensity (ln)
ATATTGTATTTATGTACACACATTTTTGGAATATGA [CACACA_site4861]	7.09
TTTTTTCTCTGTGGCTGTACTTTGAAGATATTTTAT [XGTACX_site8243]	7.18
AAAGGTTCACATTATATAGTTATGTAATATATATGT [CACACA_negctrl_site542]	6.84
TAAAATATATATATGTGTACATAACATATAATTTTT [XGTACX_site1725]	6.89
TTATTTAGTATATTATGTACATACAATGCCTGGGAA [XGTACX_site4578]	7.33
ATATGTTACAGACACACACACACATAAAAAAACAAA [CACACA_site3248]	7.21
AGTATAAAAATATATTTACACACTATATATATCGAA [CACACA_site8494]	7
TATTGTTGTTCATGTACACACTATAATAAAAGCAAT [CACACA_site6148]	7.25
TTTTCATATTATAGTGCACACAAAAATATATATATG [CACACA_site8929]	10.8
GTACATAGATTGTACATACACACCTATATAAATATC [CACACA_site3225]	7.09
AATATATGGTTCCATGATATTAAATTCAATTTAATG [CACACA_negctrl_site605]	6.8
TTTTTTTTGTTCTATACAATTATAAAAATAAAATAT [XGTACX_negctrl_site53]	6.84
GCTTATATAAAAAGTTGTACAACCGAATCTTTTACA [XGTACX_site2119]	7.44
TAATATCATTTATGTAGTACTATAACAAGAACTATA [XGTACX_site3618]	6.92
AAAAAAAAAAAGCACACACACATATGAGTATATATA [CACACA_site4683]	6.94
AATGTAAAAGTAAACACACACATATATAAATACATA [CACACA_site5386]	7
TACACAAGCAGACACACACACATATATATATATATA [CACACA_site1270]	9.13
TAGATATATAGACACACACACATTAATACCTATATT [CACACA_site7605]	7
TGTCATTTAATTTTTTGTACGAAAAAAACATATAAA [XGTACX_site4952]	7.51

Sequence	gcPBM binding intensity (ln)
AGTTGTTTTAATAATGCATGTTATTTTATTTTAATA [TGCATGCA_site168]	7.11
TATATATATAGACACACACACACATATATATATATA [CACACA_site9366]	9.05
GTATATATATATGTATATATTTTATTTTATTTTTAT [CACACA_negctrl_site1439]	6.77
CTTATTATTATATGGGTGCTCATATTTTTCTTTTTT [GTGCAC_site9723]	8.28
ACAAACATTAGGGAAGCATGCAATATTTTTTTACAT [TGCATGCA_site372]	6.8
ATTATATACATATATATACACACGTAGTTTCTATTT [CACACA_site8697]	6.92
TATAAATAAATAGATACACACATATATATAAATACA [CACACA_site155]	6.97
ATATATATATATAAATGTACATTTTTCAATAGTTTT [XGTACX_site7449]	8.97
TACTTTTTATTTTCTTGTACTTAATTGTCCAGATTT [XGTACX_site4334]	7.11
CACCCCCACAGACACACACACACACCCACATATATA [CACACA_site365]	7.62
ATTCTTATTTAAAGGTGTACTCTTAAACAGATTTTA [XGTACX_site3526]	7.15
GTACACATATAGTAATAATTTTATTATATTTTTTTG [CACACA_negctrl_site843]	6.9
ATTTTAATATAAAATACACACTACTATTATAAATAT [CACACA_site4917]	6.93
AGATTTAAATTTATATGTACATAATATGGGCGTATA [XGTACX_site6631]	7.54
GGTCTTCTTAATATACTGCACTGTATACGTATATAA	8.41
TTCATAAAATGATATTGTACAAATAAATAATAGTAT [XGTACX_site819]	7.45
TGTAGATTTTGTAACACACACATATATATACATATA [CACACA_site2405]	7.08
TAGAAGCATGGACACACACACATACATACCCATACA [CACACA_site4916]	7.18
TTATTTTTCCGGAATAGTACATAGACGCAGATATAA [XGTACX_site6356]	7.5
